Test results taken from PubChem BioAssay AID1346428 (National Center for Advancing Translational Sciences (NCATS), 2018).
Several values for one entry are separate records, joined by “and”; a condition that tells them apart may be missing. Identical values can stand only once. Screen size: about 48,000 compounds; about 1,200 (2.5%) were called active. Not shown: some 2% with an inconclusive outcome.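 How the source made its calls: active means activation of at least 60% and not above a set upper limit (about 1 call in 100 departs from these limits); inconclusive means activation of 40% to 60%, or above that upper limit; inactive means activation under 40%.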 This is one part of the list.

target: Probable G-protein coupled receptor 32 (Homo sapiens) (UniProt O75388); assay: qHTS for Agonists of Human Resolvin D1 Receptor DRV1; conditions: CHO-K1 GPR32 beta-arrestin PathHunter luminescence, 90 min; at 76.9 µM; active compounds read high; zero percent set by DMSO-only wells; further: 0% is about no effect
UniProt O75388, sequence (O75388 whole entry, looked up): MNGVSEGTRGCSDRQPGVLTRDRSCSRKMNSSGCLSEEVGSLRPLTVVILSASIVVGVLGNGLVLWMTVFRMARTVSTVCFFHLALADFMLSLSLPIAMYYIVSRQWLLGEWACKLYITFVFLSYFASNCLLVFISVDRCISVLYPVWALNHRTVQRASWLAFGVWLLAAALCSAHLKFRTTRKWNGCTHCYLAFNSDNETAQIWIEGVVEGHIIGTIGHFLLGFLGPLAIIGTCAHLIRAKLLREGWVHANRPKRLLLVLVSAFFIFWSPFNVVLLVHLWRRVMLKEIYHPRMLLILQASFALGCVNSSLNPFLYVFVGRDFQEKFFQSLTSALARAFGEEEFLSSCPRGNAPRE
In short: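 PathHunter beta-arrestin recruitment in CHO-K1 cells stably expressing ProLink-tagged GPR32. Cells were exposed to compound for 90 min at 37 C, then chemiluminescence was read after 1 h detection at ambient temperature; DMSO served as basal control.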

activation, inactive:
CC(C)Oc1ccc(CNC(=O)Cn2ncn3nc(-c4cccs4)cc3c2=O)cc1 6.46%
CCOC(=O)C1CCCN(C(=O)c2[nH]c3ccccc3c2Sc2ccc(Cl)cc2)C1 (configuration not stated) -11%
COc1ccc(C(=O)NCC(c2ccco2)S(=O)(=O)c2cccs2)cc1OC (configuration not stated) -18.6%
Cc1ccnc(NS(=O)(=O)c2ccc(NC(=O)c3nc(SC(C)C)ncc3Cl)cc2)n1 -4.47%
Cc1cccc(-c2nc3ccccc3n3c(-c4ccccc4)c4c(=O)n(C)c(=O)n(C)c4c23)c1 -7.52%
CC(C)(C(=O)O)c1ccc(C(O)CCCN2CCC(C(O)(c3ccccc3)c3ccccc3)CC2)cc1 (configuration not stated) 8.57% and -9.04%
O=C(Nc1ccc(F)c(Cl)c1)N1CCC(CN2CCc3ccccc3C2)CC1 -25.1%
CCC(C)NC(=O)CCc1c(C)nc2cc(-c3ccc(OC)cc3OC)nn2c1C (configuration not stated) -2.88%
Cc1cccc(CCNC(=O)C2CCN(c3nc4ccccc4nc3C(F)(F)F)CC2)c1 -1.99%
CCc1ccc(NC(=O)Cn2cnc3sc(C)c(S(=O)(=O)N4CCN(c5ccccc5OC)CC4)c3c2=O)cc1 -6.97%
CCc1cccc(NC(=O)c2ccc(CNS(=O)(=O)c3ccc4c(c3)C(C)(C)C(=O)N4C)cc2)c1 -8.17%
COc1ccccc1-c1cc2nc(C)c(CCC(=O)Nc3cc(C)ccc3C)c(C)n2n1 9.13%
COC(=O)c1ccccc1-n1cc2c(c1-c1cccc(C)c1)c(=O)n(C)c(=O)n2C -11.8%
Cc1oc(-c2ccccc2F)nc1CSc1nnc(C)n2c1cc1occc12 10.5%
CC(C)(C)OC(=O)N1CCC(c2c(C(=O)N3CCOCC3)cnn2-c2cccc(F)c2)CC1 -3.48%
COc1ccc(-n2nnc(-c3nc(-c4cccs4)no3)c2N)cc1 -1.11%
CCCN(CCC)CCNC(=O)C1CCN(c2nc3ccc(CC)cc3s2)CC1 -2.39%
O=C(CSc1nc2c(c(=O)[nH]1)CN(Cc1ccc3c(c1)OCO3)CC2)Nc1ccc(F)c(F)c1 24.5%
O=C(Nc1ccc(C(=O)N2CCN(c3ccccc3)CC2)cc1)c1nsc2ccccc12 -26.1%
CCOC(=O)c1cnc2ccc(Cl)cc2c1Nc1ccc(N2CCOCC2)cc1 7.96%
COc1ccc(CNC(=O)c2cc3sccc3n2Cc2ccc(C)cc2)cc1 -4.81%
NC(=O)CNCCC(c1ccccc1)c1ccccc1 -0.686%
O=C(NCCN1CCCCC1)c1ccc(Cn2c(SCc3ccccc3)nc3cccnc32)cc1 -10.1%
COCCCn1c(-c2ccc(S(=O)(=O)N3CCOCC3)cc2)csc1=Nc1ccccc1 -49.9%
CC1(c2ccc(Cl)cc2)CC(C)(C)N(C(=O)c2cccc(F)c2)c2ccccc21 (configuration not stated) -20.3%
O=C(Cc1ccccc1)Nc1sc2c(c1C(=O)Nc1ccc(Br)cc1)CCCC2 -15.9%
CC(=O)c1ccc(NS(=O)(=O)c2ccc(-n3cccn3)cc2)cc1 -4.81%
Cc1ccc(C(=O)NC2(C(F)(F)F)N=C(c3ccccc3)N(Cc3ccccc3)C2=O)cc1 (configuration not stated) -3.69%
Cc1ccc(C(=O)Oc2cc(-c3ccc4c(c3)OCO4)cc(=O)c3c(C)oc(C)c23)cc1 -6.35%
CCc1c(C)[nH]c2c1C(=O)C(CN1CCOCC1)CC2 (configuration not stated) 5.51% and 3.65%
Cc1ccc(NC(=O)C2CCN(c3nc(-c4ccc(C(C)C)cc4)no3)CC2)c(Cl)c1 -9.11%
Cc1ccccc1NC(=O)CSc1nc(-c2ccco2)nc2cc(=O)[nH]n12 -3.2%
O=C(c1ccc2c(c1)N(Cc1ccc(Cl)cc1)C(=O)c1ccccc1S2=O)N1CCCCC1 (configuration not stated) 11.1%
COc1ccccc1NC(=O)Cn1c(=O)n(CC(=O)NCc2ccccc2Cl)c(=O)c2sccc21 6.35%
COc1ccc(C(=O)Oc2c(Sc3ccc(C)cc3)c(C)nn2C(C)(C)C)cc1OC -7.14%
CCOc1ccc(CNC(=O)c2cc(-c3ccc(Cl)s3)nc3ccccc23)cc1 -4.71%
CCOC(=O)C1CCN(C(c2ccc(C)cc2)c2c(O)cc(C)n(CCOC)c2=O)CC1 (configuration not stated) -15.1%
Cc1ccc(NC(=O)Cn2cc(C(=O)C3CCCCC3)c3ccccc32)cc1 -12.9%
Cc1cccc(NC(=O)CCNS(=O)(=O)c2ccc3c(c2)CCN3C(=O)C2CC2)c1 5.21%
CCO/C([O-])=N/c1c[n+](N2CCOCC2)no1 -1.76% and -0.877%
Nc1ccc(O)c([N+](=O)[O-])c1 -99.9%
COc1ccc(CCNC(=O)CCCn2nc(C)c3sc4ccccc4c3c2=O)c(OC)c1 -14.2%
CCOc1ccc(NC(=O)Cn2c(=O)n(CCCS(=O)(=O)C3CCCCC3)c(=O)c3ccccc32)cc1 -11.1%
Cc1ccc(NC(=O)C2CCC(CNS(=O)(=O)c3cccc4nsnc34)CC2)c(Cl)c1 (configuration not stated) 5.49%
COC(=O)c1c(C)oc2ccc(N(C(=O)c3ccncc3)S(=O)(=O)c3cc(C)ccc3C)cc12 20.1%
COc1ccc(N2CCN(C(=O)C3CCN(S(=O)(=O)c4cn(C)cn4)CC3)CC2)cc1 -20.3%
Cc1ccc(OC(=O)CSc2nnc(-c3ccc4c(c3)OCO4)o2)cc1 -2.33%
Cc1ccc(-n2ncc3c(N4CCC(Cc5ccccc5)CC4)ncnc32)cc1C 15%

activation, active:
Cc1ccc(-n2ncc3c(NCC(C)C)ncnc32)c(C)c1 62.3%
Cc1ccc(C)c(NC(=O)Nc2cccc(-c3cn4cccnc4n3)c2)c1 79.7%
CCOc1ccc(-c2cc(CCCC(=O)NCCc3cc(OC)c(OC)c(OC)c3)no2)cc1 72.4%
Cc1ccc(C(=O)Nc2ccccc2)cc1S(=O)(=O)Nc1ccccc1 94.8%
